# Source: article PMC5892938
# Some of the results follow. Construct or isoform of the protein are uncertain.
# Molecular target: GST-SBP-ILF3 (Homo sapiens) (UniProt Q12906)
# Test: targeted RNA Bind-n-Seq
# Conditions: RBNS binding buffer: 25 mM Tris pH 7.5, 150 mM KCl, 3 mM MgCl2, 0.1% Tween, 0.5 mg/mL BSA, 1 mM DTT; 27 nM protein, 750 pM RNA pool; temperature not stated; high values mean tight binding; sequences stand for … in GGGUAAAAGCGAGGUGAA…CGGGACAAGUAUUAUGGG
row,Sequence,binding signal (log2 fold change)
1,UUUUUUUUUUGAGAACGGAGUAAUAAAAAA [ttttgagaunpaired],-0.21
2,UUUUUUUUUUGAGACGGAUGCCGUCUCCGG [tttttgagapaired],0.495
3,UUUUUUUUUUGAGAUGGUUUCCAUCUCCAG [tttttgagapaired],0.13
4,UUUUUUUUUUGAGAUGGUCCCCAUCUCCAG [tttttgagapaired],0.92
5,GUGUGGUGUGUUGGCCUCUAACACAUCAUA [gtspaired],-0.863
6,UUUUUUUUUUGAGAGCGAGGCGUUCUCCUA [tttttgagapaired],0.324
7,UUUUUUUUUUGAGACCGGCACGGUCUUCUA [tttttgagapaired],0.284
8,UUUUUUUUUUGAGACUGAAGCAGUUUCCGG [tttttgagapaired],0.547
9,GUGGUGUGUGUUGGAAUCUAACACACGCUA [gtspaired],-0.736
10,UUUUUUUUUUGAGAUCGUAGCGAUCUUCUA [tttttgagapaired],0.269
11,UUUUUUUUUUGAGACGGUGACCGUUUCCUA [tttttgagapaired],0.532
12,UUUUUUUUUUGAGACUGGGACAGUUUCCGG [tttttgagapaired],0.653
13,UUUUUUUUUUGAGAUCGAGACGAUCUCCUG [tttttgagapaired],0.292
14,GGUGUUGGUGUUGGUAUCUAACACCAGCGC [gtspaired],-0.754
15,GUGGUUGGUGUUGGACCCUAACACCGACCG [gtspaired],-0.529
16,GUGUGGUGUGUUGGAUUCUAACACACUACG [gtspaired],-0.582
17,UUCCUCUCUCCUCCUCGGGAGGGGGGAGGA [ctspaired],-0.447
18,UUUUUUUUUUGAGACUGUUUCAGUCUCCGG [tttttgagapaired],0.345
19,UUUUUUUUUUGAGACUGAAACAGUUUCCUA [tttttgagapaired],-0.00173
20,UUUUUUUUUUGAGAGGGGGUCCUUCUCCUA [tttttgagapaired],0.803
21,UUUUUUUUUUGAGAGCGAGGCGCUCUCCGG [tttttgagapaired],0.244
22,UUUUUUUUUUGAGACCGGGGCGGUUUCCUA [tttttgagapaired],0.588
23,GGUUGGUGUGUUGGACCCUAACACAUCGAC [gtspaired],-0.383
24,GGUUGUGGUGUUGGCACCUAACACCAUAAC [gtspaired],-0.46
25,UUUUUUUUUUGAGACGGACGCCGUCUUCUA [tttttgagapaired],0.473
26,UUUUUUUUUUGAGAGCGUAACGUUCUUCUG [tttttgagapaired],0.584
27,UUUUUUUUUUGAGAUGGACGCUAUCUCCAG [tttttgagapaired],0.482
28,UUUUUUUUUUGAGAUGGGAUCCAUCUCCGG [tttttgagapaired],-0.0765
